Data published in PubChem BioAssay AID881 (National Center for Advancing Translational Sciences (NCATS), 2007).
The campaign covered roughly 110,000 compounds. About 610 (0.55%) were called active. The shares of active, inactive and inconclusive entries below differ from those in the screen. Calls come from the whole dose curve; as a rule, active = well fitted inhibition curve with a large enough effect; inconclusive = small, poorly fitted or top-dose-only effect; inactive = no such curve, though single readings can be large or run the other way. Potencies beside an inconclusive call are fits to weak or partial responses and may not hold up.

Molecular target: Polyunsaturated fatty acid lipoxygenase ALOX15B (Homo sapiens) (UniProt O15296)
Sequence of UniProt O15296 (O15296 whole entry, looked up): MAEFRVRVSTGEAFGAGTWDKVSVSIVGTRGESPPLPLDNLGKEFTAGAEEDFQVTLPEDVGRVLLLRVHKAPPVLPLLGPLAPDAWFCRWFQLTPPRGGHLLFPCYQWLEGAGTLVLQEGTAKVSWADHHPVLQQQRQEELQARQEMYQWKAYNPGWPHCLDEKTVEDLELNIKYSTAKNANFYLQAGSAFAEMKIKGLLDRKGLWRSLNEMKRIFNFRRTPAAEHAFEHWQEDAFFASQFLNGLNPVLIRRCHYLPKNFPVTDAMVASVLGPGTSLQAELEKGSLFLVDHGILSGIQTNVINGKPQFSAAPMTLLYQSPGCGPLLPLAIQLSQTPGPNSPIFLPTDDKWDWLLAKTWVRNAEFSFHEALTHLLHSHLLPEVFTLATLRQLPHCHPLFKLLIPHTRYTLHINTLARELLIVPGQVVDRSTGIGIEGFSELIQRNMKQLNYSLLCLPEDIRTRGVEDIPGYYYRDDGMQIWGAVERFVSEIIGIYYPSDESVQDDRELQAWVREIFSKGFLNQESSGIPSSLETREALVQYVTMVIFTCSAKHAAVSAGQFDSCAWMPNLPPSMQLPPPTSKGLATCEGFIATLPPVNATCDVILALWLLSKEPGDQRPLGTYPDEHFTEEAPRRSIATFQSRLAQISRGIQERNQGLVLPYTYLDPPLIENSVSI
Test: qHTS Assay for Inhibitors of 15-hLO-2 (15-human lipoxygenase 2); note: nearly all actives have a fitted effect of over 60% in size
Conditions: purified 15hLO-2, xylenol orange hydroperoxide absorbance; activity change, negative = inhibition: at 57.1 µM (top of the series) unless noted
Outline: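 Purified human 15hLO-2 (50 nM) preincubated 15 min with compound, then 45 uM arachidonic acid for 90 min at RT in 25 mM Hepes pH 7.5, 0.01% Triton X-100. Hydroperoxide detected by Fe-xylenol orange; 573/405 nm absorbance ratio.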
% is set by controls: 0 for no effect and ±100 for the full control effect; potency is the fitted concentration of half-maximal effect; tags give direction and shape of the fitted curve.

Row | Structure (SMILES) | Potency | activity change, negative = inhibition
1 | CCCCOP(=O)(OCCCC)C1(NS(=O)(=O)c2ccccc2)C=CC(=O)c2ccccc21 (centres undefined) | inconclusive: 6.31 µM [inhibitor, partial curve] | –
2 | CCOC(=O)c1ccc(NC2=CC(=O)C(=O)c3ccccc32)cc1 | inconclusive: 25.1 µM [inhibitor, partial curve] | –
3 | O=C(NC(NC(=S)Nc1ccc(Cl)c(Cl)c1)C(Cl)(Cl)Cl)c1ccco1 (centres undefined) | inconclusive: 31.6 µM [inhibitor, single point] | –
4 | CCc1c(C)sc(NC(=O)c2cc(-c3cc(OC)ccc3OC)on2)c1C#N | inconclusive: 39.8 µM [inhibitor, single point] | –
5 | CNC(=O)c1sc(-c2cccnc2)nc1C | – | inactive: 2.64%
6 | C=CC1=C(C)C2=Cc3c(C=C)c(C)c4[n]3[Sn+2][n]3c(c(C)c(CCC(=O)O)c3=CC3=NC(=C4)C(C)=C3CCC(=O)O)=CC1=N2 | inconclusive: 31.6 µM [inhibitor, partial curve, poor fit] | –
7 | Cc1ccc2c(Cl)cc(Cl)c(OCC(=O)NCc3ccco3)c2n1 | inconclusive: 25.1 µM [inhibitor, partial curve] | –
8 | C/C(=C\C(=O)c1ccc(C)cc1)Nc1ccc(N2CCOCC2)cc1 | inconclusive: 31.6 µM [inhibitor, single point] | –
9 | Cc1cc(-c2cccs2)c2c(n1)sc1c(=O)[nH]c(=O)[nH]c12 | – | inactive: -1.61%
10 | CC1(C)CC2CC(C)(CN2C(=O)COC(=O)Cn2[nH]c(=O)c3ccccc3c2=O)C1 (centres undefined) | – | inactive: 3.72%
11 | COC(=O)c1c(OC)cc2c(c1C)Oc1c(Cl)c(O)c(Cl)c(C)c1C(=O)O2 | inconclusive: 31.6 µM [inhibitor, single point] | –
12 | N#Cc1c(Sc2ncc(C(F)(F)F)cc2Cl)nsc1C/C=N\OCc1c(F)cccc1Cl | inconclusive: 15.8 µM [inhibitor, partial curve] | –
13 | CCSc1oc(-c2ccco2)nc1S(=O)(=O)c1ccc(F)cc1 | inconclusive: 15.8 µM [inhibitor, partial curve] | –
14 | Cc1ccc(C2CC(=O)NC(SCc3ccccc3)=C2C#N)o1 (centres undefined) | inconclusive: 20 µM [inhibitor, partial curve, poor fit] | –
15 | Cc1nc(NC2CCCCC2)c2nc(-c3ccccc3)n(CCN(C)C)c2n1 | – | inactive: 60.9%
16 | COC(=O)C(C)n1cnc2c(nnn2Cc2ccc(Cl)cc2)c1=O (centres undefined) | – | inactive: -1.11%
17 | Cc1nn(-c2ccccc2)c2sc(C(=O)N3CCc4ccccc4C3)cc12 | – | inactive: -0.529%
18 | COc1cccc(C(=O)Oc2c(CN3CCOCC3)cc(Cl)c3cccnc23)c1 | – | inactive: 38.1%
19 | CN(C)Cc1ccccc1-c1cc(-n2ccnc2)ncn1 | – | inactive: 22.7%
